Reference: PubChem BioAssay AID1345082 (National Center for Advancing Translational Sciences (NCATS), 2018)
The campaign covered roughly 94,000 compounds. About 4,000 (4.3%) were called active. Inconclusive results, whose numbers are uncertain, are shown with a selection of clear calls. The call rests on the fitted dose curve; in most records, active means well fitted inhibition curve with a large enough effect; inconclusive means small, poorly fitted or top-dose-only effect; inactive means no such curve, though single readings can be large or run the other way. Where the call is inconclusive, the potency comes from a doubtful curve fit.

Assay: Cytotoxic Profiling in NIH 3T3 Cell Line of Diverse Libraries Using Quantitative High-Throughput Screening; further: nearly all actives have a fitted effect of over 55% in size
Settings: NIH 3T3 viability, CellTiter-Glo ATP luminescence, 48-72 h; series mostly up to 96.7 µM
Method in brief: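 Luminescent ATP readout (CellTiter-Glo, 10 min RT) after 48 or 72 hr compound exposure of NIH 3T3 cells seeded at 400 cells/well in 1536-well format; quantitative HTS.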
Potency means the concentration at half of the fitted maximal effect; tags describe the fitted curve by direction and shape.

Compound	Potency
Cc1cccc(CC(=O)N2CCC3(CCC(=O)N(CC4CC4)CC3)CC2)c1	inconclusive: 56.2 µM [inhibitor, partial curve, poor fit]
O=C(NCC1CC1)c1cccc(OC2CN(Cc3cc4ccccc4nc3Cl)C2)c1	inconclusive: 31.6 µM [inhibitor, partial curve]
CCn1c2c(c(=O)n1-c1ccccc1)CCN(Cc1ncccn1)C2	inconclusive: 100 µM [inhibitor, partial curve, poor fit]
Cn1ncc2c(C(=O)NCc3cccs3)cc(-c3cccnc3)nc21	inconclusive: 56.2 µM [inhibitor, partial curve, poor fit]
COc1ccc(C(=O)N2CCCn3nc(C)c(-c4ccccc4C(C)C)c32)cc1	inconclusive: 17.8 µM [inhibitor, full curve, poor fit]
N#Cc1ccc(S(=O)(=O)N2CCCCCNC(=O)[C@@H]3CCCC[C@@H]32)cc1	inconclusive: 70.8 µM [inhibitor, single point]
Cc1cccc(C(=O)N2CC(Oc3ccc(-c4nc(-c5ccccc5)no4)cc3)C2)c1	inactive
CC(C)CCN1CCOc2cc(C(=O)Nc3ccncn3)ccc2C1	inconclusive: 44.7 µM [inhibitor, partial curve, poor fit]
Cc1ccc(-c2ccccc2CN2CCC(C(=O)N3CCC(Cc4ccccc4)CC3)CC2)cc1Cl	inconclusive: 50.1 µM [inhibitor, partial curve, poor fit]
COc1ccc(-c2noc(-c3nc(-c4ccccc4OC)no3)n2)cc1OC	inactive
CC(=O)NC[C@@H]1C=C(C)[C@H](Cc2nc3ccc(C)cc3[nH]2)C[C@H]1C(C)C	active: 70.8 µM
O=C(NCC(F)(F)F)C1CCN(C(=O)c2ccc(-c3cncnc3)cc2)CC1	inactive
CN1CCc2nc(N3CCN(CC4CCCCC4)CC3)sc2C1	inconclusive: 39.8 µM [inhibitor, partial curve, poor fit]
O=C(Cc1ccccc1F)N1CC2CC(C1)[C@H]1CCCC(=O)N1C2 (stereo partly specified)	inactive
CC1=C[C@@H](CC#N)[C@H](C(C)C)C[C@H]1CC(=O)N1CCC(C)CC1	inconclusive: 112 µM [inhibitor, single point]
O=C(Nc1cccc(-c2ccc(F)cc2)c1)C1CCCN1C(=O)C1CCOCC1 (stereo unspecified)	inactive
COCCCNC(=O)N1CCCC(COc2ccccc2C(=O)N2CCCCC2)C1 (stereo unspecified)	inactive
Clc1cccc(-c2ccc(CNc3ncncn3)o2)c1	inconclusive: 56.2 µM [inhibitor, partial curve, poor fit]
COC1CCN(c2cc(-c3cccc(C(F)(F)F)c3)nc3c(C)noc23)CC1	inconclusive: 56.2 µM [inhibitor, partial curve, poor fit]
CCOc1ccc2c(n1)CCN(C(=O)c1ccncc1)C2	inactive
Cn1ccc(NC(=O)c2ccc3c(c2)NC(C)(COc2ccccc2)CO3)n1 (stereo unspecified)	inconclusive: 79.4 µM [inhibitor, partial curve, poor fit]

Compound	Potency
CC(C)NC(=O)NC[C@H]1COCc2nc3cc(C(F)(F)F)ccc3n21	inconclusive: 89.1 µM [inhibitor, partial curve, poor fit]
CCn1c2c(c(=O)n1-c1ccccc1)CCN(C(=O)Cc1ccc3c(c1)OCO3)C2	inconclusive: 10 µM [inhibitor, full curve, poor fit]
N#Cc1cccc(-c2ccnc(N[C@H]3CO[C@H]4[C@@H]3OC[C@@H]4NC(=O)c3ccccc3)n2)c1	inconclusive: 126 µM [inhibitor, single point]
CCOc1ccc(NC(=O)C2CCN(c3cnn(Cc4ccccc4)c(=O)c3)C2)cc1 (stereo unspecified)	inactive
O=c1c2nc(OCc3ccc(F)cc3)ccc2ncn1Cc1ccccn1	inconclusive: 56.2 µM [inhibitor, partial curve, poor fit]
COc1ccc(-c2onc(C)c2C(=O)N2CCC(Cc3ccc(F)cc3)CC2)cc1	inconclusive: 35.5 µM [inhibitor, partial curve, poor fit]
COc1ccc(F)cc1-c1cccc(C(=O)NCCNC(=O)N(C)C)c1	inconclusive: 39.8 µM [inhibitor, partial curve, poor fit]
CCOc1ccc(CN2CCN(Cc3nc4ccccc4[nH]3)CC2CCO)cc1 (stereo unspecified)	inactive
COc1ccc(-c2nc(C3CC(=O)N(Cc4ccccc4OC)C3)no2)c(C)c1 (stereo unspecified)	inconclusive: 35.5 µM [inhibitor, partial curve]
CC(C)N1C(=O)CO[C@H]2CCN(Cc3cccs3)CC[C@@H]21	inconclusive: 39.8 µM [inhibitor, partial curve, poor fit]
CCOc1cc(=O)n2c(c1C(=O)Nc1cc(Cl)ccc1Cl)CCCC2	inconclusive: 5.01 µM [inhibitor, full curve, poor fit]
O=C(Cc1ccccn1)NC1CCN(c2ccc3nnc(C4CC4)n3n2)CC1	inactive
CN(CCCN1CCCCCC1)c1nc(-c2ccncc2)nc2c1cnn2C	active: 31.6 µM
CN1[C@@H](CCC(=O)NCc2cccs2)CNC(=O)[C@@H]2[C@H]1CCN2CC(C)(C)C	inactive
CNC(=O)c1cc(C2CC2)nc2c1c(C1CCCN(C(=O)c3ccc(C(F)(F)F)cc3)C1)nn2C (stereo unspecified)	inconclusive: 50.1 µM [inhibitor, partial curve, poor fit]
Cc1cccc(NC(=O)N2C[C@@H](Oc3cccnc3)C[C@@H]2C(=O)N2CCOCC2)c1	inactive
CCOC(=O)C1C(=O)NCC12CCN(C(=O)c1ccc(C(C)(C)C)cc1)CC2 (stereo unspecified)	inactive
Cc1ccccc1[C@H]1C[C@@H](O)[C@@H](O)[C@@H]1NC(=O)c1nc2ccccc2s1	inconclusive: 100 µM [inhibitor, partial curve, poor fit]
OC[C@@H]1CNC[C@H]1C1CCN(Cc2cccc(C(F)(F)F)c2)CC1	inconclusive: 44.7 µM [inhibitor, partial curve, poor fit]
O=C(Nc1cccc(C(F)(F)F)c1)N[C@H]1[C@H](O)[C@@H](N2CCN(c3ccccc3)CC2)[C@@H]2OC[C@H]1O2	inconclusive: 56.2 µM [inhibitor, partial curve, poor fit]
